Data published in PubChem BioAssay AID1159614 (National Center for Advancing Translational Sciences (NCATS), 2016).
About 65 (0.1%) of roughly 45,000 compounds were called active. Calls follow the shape of the dose curve; as a rule, active = well fitted activation curve with a large enough effect; inconclusive = small, poorly fitted or top-dose-only effect; inactive = no such curve, though single readings can be large or run the other way. Some of the results follow.

Each molecule was assayed against Galactocerebrosidase (Homo sapiens) (UniProt P54803) (assay: A Novel Cell-Based Assay to Identify Small Molecules for B -Galactocerebrosidase). Details: 145M-Twi-hGALC-G270D cells (Twitcher mouse brain line with human GALC G270D), HMU-beta-Gal fluorescence, 48 h; series mostly up to 57.5 µM; activation: at the top concentration.
Summary of the method: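 Brain-derived Twitcher mouse 145M-Twi cells stably expressing human GALC-G270D or wild-type GALC, treated live, then residual GALC activity read by fluorescence of HMU-b-Gal substrate (0.1 mM final) in citrate-phosphate buffer pH 5.2 with sodium taurocholate. Signal increase indicates enhancement.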
Also: 0% is about no effect; nearly all actives have a fitted effect of over 65% in size.

Sequence of UniProt P54803 (P54803 whole entry, looked up): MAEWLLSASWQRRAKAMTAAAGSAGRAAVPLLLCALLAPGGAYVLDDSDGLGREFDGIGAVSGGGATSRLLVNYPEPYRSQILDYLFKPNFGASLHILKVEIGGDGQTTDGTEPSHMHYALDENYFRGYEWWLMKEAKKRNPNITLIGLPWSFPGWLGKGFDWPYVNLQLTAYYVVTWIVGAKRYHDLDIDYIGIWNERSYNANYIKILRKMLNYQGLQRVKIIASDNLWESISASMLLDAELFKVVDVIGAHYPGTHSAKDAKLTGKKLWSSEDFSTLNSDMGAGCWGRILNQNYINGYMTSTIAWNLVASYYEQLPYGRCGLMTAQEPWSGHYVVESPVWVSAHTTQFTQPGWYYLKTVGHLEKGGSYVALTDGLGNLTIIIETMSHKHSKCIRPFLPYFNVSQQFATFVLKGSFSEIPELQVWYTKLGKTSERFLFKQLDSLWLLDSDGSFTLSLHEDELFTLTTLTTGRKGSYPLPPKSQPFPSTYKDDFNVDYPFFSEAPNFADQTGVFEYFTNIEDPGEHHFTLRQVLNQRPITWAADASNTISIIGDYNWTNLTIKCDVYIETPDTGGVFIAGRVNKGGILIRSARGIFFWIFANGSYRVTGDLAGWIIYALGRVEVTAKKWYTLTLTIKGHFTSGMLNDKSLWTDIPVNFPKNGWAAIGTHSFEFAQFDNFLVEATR

Row | Structure (SMILES) | activation
1 | CCOc1ccc(CNC(=O)c2ccc3c(c2)nc2n3CCOC2)cc1 | inactive: 3.45%
2 | COc1ccc(-c2cc(C(F)(F)F)nc(SCC(=O)N(C)Cc3ccccc3)n2)cc1OC | inactive: -5.9%
3 | COc1ccc2c(c1)c1c(c(=O)n(CCc3ccccc3)c(=O)n1Cc1ccccc1)n2C | inactive: 0.94%
4 | Cc1ccc(NC(=O)c2oc3ccc(S(=O)(=O)N4CCCCC4)cc3c2C)cc1C | inactive: -11.8%
5 | O=C(c1cc2ccc3cccnc3c2[nH]1)N1CCN(c2cccc(C(F)(F)F)c2)CC1 | inactive: -12.9%
6 | Cc1ccc(C)c2sc(NC(=O)c3ccc(S(=O)(=O)N4CCCC4)cc3)nc12 | inactive: -6.24%
7 | COc1ccc(CNC(=O)c2c(Nc3ccc(OC)cc3OC)sc(C(=O)c3ccc(Cl)cc3)c2N)cc1 | inactive: -2.89%
8 | CCOC(=O)CSc1nc2sc3c(c2c(=O)n1Cc1ccccc1)CCC(C(C)(C)C)C3 (stereo unspecified) | inactive: -11.1%
9 | COc1cc(O)ccc1C1CC(=O)Nc2c1c(=O)nc(SCc1ccccc1C)n2C (stereo unspecified) | inactive: -4.7%
10 | CCC(C)(C)NS(=O)(=O)c1cc(-c2cc(C)no2)ccc1C | inactive: -21%
11 | CCN1c2ccccc2-c2nc(SCC(=O)Nc3cccc(C(F)(F)F)c3)ncc2S1(=O)=O | inactive: -15.7%
12 | COc1ccc2nc(S(=O)Cc3ncc(C)c(OC)c3C)[nH]c2c1 (stereo unspecified) | inactive: -12.7%
13 | CCOC(=O)c1cccc(NC(=O)c2cc(S(=O)(=O)N3CCCCCC3)cn2C)c1 | inactive: -6.3%
14 | COc1ccc(CNc2oc(-c3ccc(COc4ccc(Cl)cc4)o3)nc2C#N)cc1 | inactive: -13.1%
15 | Cc1ccc(C)c(CN2C(=O)c3ccccc3S(=O)c3ccc(C(=O)N4CCC(C)CC4)cc32)c1 (stereo unspecified) | inactive: -10.8%
16 | Cc1cc(C)cc(Nc2cc(C(=O)NCCCN(Cc3ccccc3)C(C)C)c3ccccc3n2)c1 | inactive: -0.343%
17 | CCOc1ccc(CNC(=O)c2cc(=O)[nH]c3ccc(S(=O)(=O)N4CCCCC4)cc23)cc1 | inactive: -22.3%
18 | COc1ccc(CN(C(=O)c2cc3ccccc3oc2=O)C2CCS(=O)(=O)C2)cc1 (stereo unspecified) | inactive: -9.4%
19 | Cc1ccc(CNC(=O)C2CCC(CNS(=O)(=O)c3ccc4c(c3)CCCC(=O)N4)CC2)cc1 (stereo unspecified) | inactive: 3.58%
20 | CC(C)OCCCNC(=O)CCCn1c(=O)[nH]c2ccsc2c1=O | inactive: -17%
21 | COc1ccc(NC(=O)CN2CCCN(S(=O)(=O)c3ccc(Br)cc3)CC2)c(OC)c1 | inactive: -26.6%
22 | CCOC(=O)c1ccc(NC(=O)CCS(=O)(=O)c2ccc(C)cc2)cc1 | inactive: -7.9%
23 | Cc1cccc(-c2nc(CCNC(=O)c3ccco3)cs2)c1 | inactive: -1.57%
24 | O=C(Nc1cccc(-c2nc3ccccc3o2)c1)c1cc([N+](=O)[O-])ccc1N1CCOCC1 | inactive: -21.6%

Row | Structure (SMILES) | activation
25 | CCN(Cc1ccccc1)C(=O)Cn1c(=O)n(-c2ccc(F)c(Cl)c2)c(=O)c2sc3ccccc3c21 | inactive: -6.28%
26 | Cc1cccc(C)c1OCCSc1nc2ccccc2n1CC(=O)O | inactive: -7.65%
27 | COc1ccc(N2CCN(S(=O)(=O)c3csc(C(N)=O)c3)CC2)cc1 | inactive: 2.88%
28 | COC(=O)CC1Oc2ccc(F)cc2-n2cc(-c3ccc(Cl)cc3)nc21 (stereo unspecified) | inactive: 26.2%
29 | COc1ccc(-c2nc3c4cnn(-c5ccccc5F)c4ncn3n2)cc1 | inactive: -5.74%
30 | CC(=O)Nc1ccc(NS(=O)(=O)c2ccc3c(c2)CC(C)N3C(=O)C2CCC2)cc1 (stereo unspecified) | inactive: -14.7%
31 | CCc1ccc(CNC(=O)COc2cc(=O)n(CC)c3ccccc23)cc1 | inactive: -39.9%
32 | CC(=O)N1CCCC1c1nc2ccccc2n1Cc1cccc(Cl)c1 (stereo unspecified) | inactive: -25.2%
33 | COc1ccc(-n2nnc(-c3nc(-c4cccs4)no3)c2N)cc1OC | inactive: -22.9%
34 | COC(=O)c1c(NC(=O)c2nc(SCc3cccc(C)c3)ncc2Cl)sc2c1CCCC2 | inactive: 8.74%
35 | CC1=C(c2ccc(F)cc2)S(=O)(=O)NC1=NCc1ccccc1F | inactive: -19%
36 | COc1cc(C2CC(=O)c3c([nH]c(C(=O)OCC4CCCCC4)c3C)C2)cc(OC)c1OC (stereo unspecified) | inactive: -26.8%
37 | COc1ccc(-c2nc(C)c(CCNC(=O)C(=O)Nc3ccccc3C#N)s2)cc1OC | inactive: -5.93%
38 | COc1cc(NC(=O)CC(c2ccc(C)cc2)N2Cc3ccccc3C2=O)cc(OC)c1 (stereo unspecified) | inactive: -45%
39 | Cc1ccc(-c2noc(-c3ccc(NCc4ccco4)c([N+](=O)[O-])c3)n2)cc1 | inactive: 2.43%
40 | Cc1ccccc1NS(=O)(=O)c1ccc2[nH]cc(C(=O)NC(C)c3ccccc3)c(=O)c2c1 (stereo unspecified) | inactive: -12.5%
41 | COc1ccccc1C(=O)Nc1nc2nc(-c3ccccc3)cc(=O)n2[nH]1 | inactive: -4.04%
42 | CCc1nn2c(=O)cc(COC(=O)c3ccc(NC(=O)c4cccs4)cc3)nc2s1 | inactive: -12.7%
43 | CCOc1ccccc1CNC(=O)Cn1ncn2nc(-c3cccs3)cc2c1=O | inactive: -9.19%
44 | Cc1ccc(C)c(CNC(=O)C2CCN(c3nc4ccccc4nc3C(F)(F)F)CC2)c1 | inactive: -6.56%
45 | COc1ccccc1CCNC(=O)C(=O)NCC(c1cccs1)S(=O)(=O)c1ccc(C)cc1 (stereo unspecified) | inactive: -10%
46 | COc1ccc(Nc2nnc(-c3cc4c(ccc5ccccc54)oc3=O)s2)cc1 | inactive: -10.5%
47 | Cc1n[nH]c(C)c1S(=O)(=O)N1CCCC(C(=O)Nc2ccc(Br)cc2)C1 (stereo unspecified) | inactive: -1.48%
48 | COc1ccc(CCNC(=O)c2cc(C)nc3c2c(C)nn3-c2ccc(C)cc2)cc1OC | inactive: -11.5%

Row | Structure (SMILES) | activation
49 | Cc1cc(Nc2ccccc2C)nc(-n2nc(C)cc2C)n1 | inactive: -9.61%
50 | CCNC(=O)c1ccc2nc(CCc3ccccc3)oc2c1 | inactive: -7.16%
51 | CCN(CC)CCCNC(=O)c1ccc2nc(N3CCCCC3)sc2c1 | inactive: -5.53%
52 | CCOc1ccccc1CN1CCc2nc(N3CCN(c4ccccc4F)CC3)ncc2C1 | inactive: -9.63%
53 | COc1ccc2nc(N(Cc3cccnc3)C(=O)C3COc4ccccc4O3)sc2c1 (stereo unspecified) | inactive: -25.1%
54 | CCCN(C(=O)c1cn(C)c(=O)c2ccccc12)c1ccccc1C | inactive: -1.46%
55 | O=C(CN1CCSc2ccccc21)NCc1ccccc1F | inactive: -4.41%
56 | CCOc1ccccc1C(=O)N(Cc1cc(OC)c(OC)c(OC)c1)C1CCS(=O)(=O)C1 (stereo unspecified) | inactive: -14.6%
57 | COc1cc(C)ccc1OCCSc1nc(-c2cccc(C)c2)nc2cc(=O)[nH]n12 | inactive: -13.2%
58 | COc1cccc(C(=O)CC2(O)C(=O)Nc3ccc(Cl)cc32)c1 (stereo unspecified) | inactive: 1.61%
59 | Cc1nc(CC(=O)Nc2cc(Cl)ccc2C)cs1 | inactive: 0.264%
60 | CCCOc1ccc(CN(C(=O)c2cc(=O)c3ccc(C)cc3o2)C2CCS(=O)(=O)C2)cc1 (stereo unspecified) | inactive: -6.51%
61 | COc1ccc(N2CCN(S(=O)(=O)CCNC(=O)C3CC(=O)N(c4ccccc4)C3)CC2)cc1 (stereo unspecified) | inactive: -18.4%
62 | Cc1ccc(-c2cc(NC(=O)COc3ccc(Cl)c(C)c3)on2)cc1 | inactive: -15.3%
63 | CCN1CCN(C(=O)Cn2ncc3c4ccccc4n(Cc4ccccc4)c3c2=O)CC1 | inactive: -1.92%
64 | Cc1cc(C)c(NC(=O)CN2C(=O)c3cccnc3Oc3ccc(C)cc32)c(C)c1 | inactive: -5.39%
65 | Cc1ccc(/C=C/C(=O)Nc2ccc(S(N)(=O)=O)cc2)o1 | inactive: -16.6%
66 | COc1cccc(NC(=O)Cn2c(=O)n(CC(=O)NCc3ccc(C)cc3)c(=O)c3sccc32)c1 | inactive: -14.8%
67 | Nc1nnc(SCC(=O)Nc2ccccc2)s1 | inactive: -17.9%
68 | Cc1ccc(C(c2ccccc2)c2c(C)[nH]c3ccccc23)s1 (stereo unspecified) | inactive: -22.2%
69 | Cc1ccc2nc(-c3c[nH]c4ccccc34)c(Nc3ccccc3C)n2c1 | inactive: -8.1%
70 | O=C(CCS(=O)(=O)c1ccc(Br)cc1)Nc1ccc(Cl)c(C(F)(F)F)c1 | inactive: 2.27%
71 | CCOC(=O)c1cccc(NC(=O)c2cn(-c3cccc(OC)c3)c(=O)c3ccccc23)c1 | inactive: -10.5%
72 | COc1ccccc1CCNC(=O)C(=O)NCC(c1cccs1)S(=O)(=O)c1ccccc1 (stereo unspecified) | inactive: -6.03%

Row | Structure (SMILES) | activation
73 | Cc1cc(C)c(Cn2c3ccccc3c3cnn(CC(=O)NCc4ccccn4)c(=O)c32)c(C)c1 | inactive: -14.1%
74 | Cc1nnc(SCC2=C(C(=O)O)N3C(=O)[C@@H](NC(=O)Cn4cnnn4)[C@H]3SC2)s1 | inactive: -15.2%
75 | COc1cc(NC(=O)N(Cc2ccco2)C2CCN(C(C)=O)CC2)cc(OC)c1OC | inactive: -10.5%
76 | Cc1cccc(-c2nc3nc(C)cc(NCc4ccccc4Cl)n3n2)c1 | inactive: -25%
77 | COc1ccc(-c2cc(C(F)(F)F)nc(-n3nc(C(F)(F)F)cc3C)n2)cc1 | inactive: -12.3%
78 | CC(C)OCCCNC(=O)C(=O)Nc1ccc2nc3n(c(=O)c2c1)CCCCC3 | inactive: -11.9%
79 | Fc1cc(F)c2ncc3c(-c4ccccc4)nn(-c4cccc(Cl)c4)c3c2c1 | inactive: 5.3%
80 | Cc1ccc(Sc2ccc(N3CCC(C(=O)Nc4ccc(C)c(F)c4)CC3)nn2)cc1 | inactive: -1.21%
81 | Cc1ccccc1NC(=O)C1CCN(C(=O)c2cnn(-c3ccccc3)c2-n2cccc2)CC1 | inactive: -3.24%
82 | Cc1cccc(Cn2c(=O)n(Cc3ccccc3)c(=O)c3oc4ccccc4c32)c1 | inactive: -15.4%
83 | Cc1ccc(-n2c(SCC(=O)NCc3ccccc3)nc3n[nH]c(C)c3c2=N)cc1Cl | inactive: -13.6%
84 | O=C(NCC(c1cccs1)S(=O)(=O)c1cccs1)c1ccc(Cl)cc1 (stereo unspecified) | inactive: -8.25%
85 | CC1CCN(c2oc(-c3ccc(COc4ccccc4)o3)nc2C#N)CC1 | inactive: -9.6%
86 | CCc1ccc(-n2c(N3CCN(c4cccc(Cl)c4)CC3)nc3ccccc3c2=O)cc1 | inactive: -6.46%
87 | CCOc1ccc(NC(=O)Cn2c(=O)n(Cc3nc(-c4ccccc4)no3)c(=O)c3cc4c(cc32)OCO4)cc1 | inactive: 0.0118%
88 | CC(=O)c1ccc(NC(=O)c2nc(-c3ccccc3)n(-c3ccc(Cl)cc3)n2)cc1 | inactive: -14.6%
89 | CC(C)c1cnc2c(c1SCc1cccc(F)c1)c(=O)n(C)c(=O)n2C | inactive: -13.7%
90 | CC(=O)N1CCc2cc(Br)cc(S(=O)(=O)N3CCC(C)CC3)c21 | inactive: 1.79%
91 | Cc1ccc(-c2nc3nc(C)cc(C)n3c2Nc2ccc3c(c2)OCCO3)cc1 | inactive: -25.7%
92 | Cc1ccc(Cn2ccn(CC(=O)Nc3c(C)cc(C)cc3C)c(=O)c2=O)cc1 | inactive: -1.59%
93 | O=c1[nH]c(=O)n([C@H]2C[C@H](O)[C@@H](CO)O2)cc1C(F)(F)F | inactive: -16.7%
94 | CCOC(=O)c1cc2c(=O)n3ccccc3nc2n(CCOC)c1=NC(=O)C(C)(C)Oc1ccc(Cl)cc1 | inactive: -8.33%
95 | Cc1nc2nc(NC(=O)C(C)(C)C)[nH]n2c(=O)c1Cc1ccccc1 | inactive: 6.99%
96 | COc1ccc(NS(=O)(=O)c2cc3c(cc2C)NC(=O)CO3)c(OC)c1 | inactive: -15.5%
